# Source: the RNAGym collection of RNA variant scans (doi:10.7554/elife.90254)
# The source gives no read counts; variants with many changes may rest on few reads.
# B1: OR4K15 (parent)
# chain: GUUAACGGUCAUAGGCCAUGGAAACUAGGAGCACCAUUUCGCUGCCAGUGAAGAAAUGAACAAAGAAAAUCUGGGCCAGGCAGGCAUCAAAAGAAAUAGUCUUGCGCUCAACCAGAAAGUCUGUAAUCAUUUUAAGGGUA
# Variants of: B1
# Assay: self-cleavage, relative activity (ratio to wild type); higher = more cleavage; in vitro, sequencing; the parent is a self-cleaving ribozyme
row,Variant,self-cleavage
1,GUUAACGGUCAUAGGCCAUGGAAACUAGGAGCACCGUCUCGCUGCCAGUGAAGAAAUGAACAAAGAAAAUCUGGGCCAGGCUGGCAUCAAAAGAAAUAGUCUUGCGCUCAACCAGAAAGUCUGUAAUCAUUUUAAGGGUA [A36G U38C A82U],0.22
2,GUUAACGGUCAUAGGCCAUGGAAACUAGGAGCACCGAUUCGCUGCCAGUGAAGAAAUGGACAAAGAAAAUCUGGGCCAGGCAGGCAUCAAAAGAAAUAGUCCUGCGCUCAACCAGAAAGUCUGUAAUCAUUUUAAGGGUA [A36G U37A A59G U102C],1.3
3,GUUAACGGUCAUAGGCCAUGGAAACUAGGAGCACCUUUUCGCUGCCAGUGAGGGAAUGAACAAAGAAAAUCUGGGCCAGGCAGGCAUCAAAAGAAAUAGUCUUGCGCUCAACCAGAAAGUCUGUAAUCAUUUUAAGGGUA [A36U A52G A54G],1.54
4,GUUAACGGUCAUAGGCCAUGGAAACUAGGAGCACCGCUUCGCUGCCAGUGAAGAAAUGAACAAAGAAAAUCUGGGCCAGGCAGGCAUCAAAAGAAAUAGUCUUGCGCUCAACCAGGAAGUCUGUAAUCAUUUUAAGGGUA [A36G U37C A116G],1.14
5,GUUAACGGUCAUAGGCCAUGGAAACUAGGAGCACCGUUUCGCUGCCAGUGAAGAAAUGAACAAAGAAAAUCUGGGCCAGGCAGGUAUCAAAAGAAAUAGUCUUGCGCUCAACCAGAAAGUCUGUAAUCAUUUUAAAGGUA [A36G C85U G136A],1.28
6,GUUAACGGUCAUAGGCCAUGGAAACUAGGAGCACCUUUUCGCUGCCAGUGGAGAAAUGAACAAAGAAAAUCUGGGCCAGGCAGGCAUCAAAAGAAAUAGUCUUGCGCUCAACCAGAAAGCCUGUAAUCAUUUUAAGGGUA [A36U A51G U120C],0.79
7,GUUAACGGUCAUAGGCCAUGGAAACUAGGAGCACCGUUUCGCUACCAGUGAAGAAAUGAACAAAGAAAAUCUGGGCCAGGCAGGCAUCAAAAGAUAUAGUCUUGCGCUCAACCAGAAAGUCUGUAAUCAUUUUAAGGGUA [A36G G44A A95U],1.52
8,GUUAACGGUCAUAGGCCAUGGAAACUAGGAGCACCGCUUCGCUGCCAGCGAAGAAACGAACAAAGAAAAUCUGGGCCAGGCAGGCAUCAAAAGAAAUAGUCUUGCGCUCAACCAGAAAGUCUGUGAUCAUUUUAAGGGUA [A36G U37C U49C U57C A125G],0.15
9,GUUAACGGUCAUAGGCCAUGGAAACUAGGAGCACCGCUUCGCUGCCAGUGAAGAAAUGUACAAAGAAAAUCUGGGCCAGGCAGGCAUCAAAAGAAAUAGUCUUGCGCUCAACCAGAAAGUCUGUAAUCACUUUAAGGGUA [A36G U37C A59U U130C],0.75
10,GUUAACGGUCAUAGGCCAUGGAAACUAGGAGCACCGUUUCGCUGCCAGUGAAGAAAUGAACAAAGAAAAUCCGGGCCAGGCAGGCAUCAAAAGAAAUAGCCUUGCGCUCAACCAGAAAGUCUGUAAUCAUUUUAAGGGUA [A36G U72C U100C],0.93
11,GUUAACGGUCAUAGGCCAUGGAAACUAGGAGCACCUUUUCGCUGCCAGUGGAGAAAUGAACAAAGAAAAUCUGGGCCAGGCAGGCAUCAAAAGAAAUAGUCUUGCGCUCAACCAGUAAGUCUGUAAUCAUUUUAAGGGUA [A36U A51G A116U],0.25
12,GUUAACGGUCAUAGGCCAUGGAAACUAGGAGCACCGUUUCGCCGCCUGUGAAGAAAUGAACAAAGAAAAUCUGGGCCAGGCAGGCAUCAAAAGAAAUAGUCUCGCGCCCAACCUGAAAGUCUGUAAUCAUUUUAAGGGUA [A36G U43C A47U U103C U108C A114U],0.01
13,GUUAACGGUCAUAGGCCAUGGAAACUAGGAGCACCGUUUCGCUGCCAGUGAAGAAAUGAACAAAGAAAAUCUGGGCCAGGCAGGCAUCAAAAGAAAUAGUCUUGUGCUCAACCGGAAAGUGUGUAAUCAUUUUAAGGGUA [A36G C105U A114G C121G],0.01
14,GUUAACGGUCAUAGGCCAUGGAAACUAGGAGCACCGUUUCGCUGCCAGUGAAGAAAUGAACAAAGAAAAUCUGGGCCAGGCAGGCAUCAAAAGAAAUAGCCUUGCGCUCAACCAGAAAGUCUGUAAUCAUUCUAAGGGUA [A36G U100C U132C],2.31
15,GUUAACGGUCAUAGGCCAUGGAAACUAGGAGCACCGUUUCGCUGCCAGUGAAGAAACGAACAAAGAAAAUCUGGGCCAGGCAGGCAUCAGAAGAAAUAGUCUUGCGCGCUACCAGAAAGUCUGUAAUCAUUUUAAGGGUA [A36G U57C A90G U108G A110U],0.01
16,GUUAACGGUCAUAGGCCAUGGAAACUAGGAGCACCGUUUCGCUGCCAGUGAAGAAAUGAACAAAGAAAAUCUGGGCCAGGCAGGCACCAAAAGAAAUAGUCUUGCGCUCAACCAGAAAGUCUGUAAUCAUUUUAAGGAUA [A36G U87C G138A],1.66
17,GUUAACGGUCAUAGGCCAUGGAAACUAGGAGCACCGUCACGCUGCCAGUGAAGAAAUGAACAAAGAAAAUCUGGGCCAGGCAGGCAUCAAAAGAAAUGGUCUUGCGCUCAACCAGAAAGUCUGUAAUCAUUUUAAGGGUA [A36G U38C U39A A98G],1.36
18,GUUAACGGUCAUAGGCCAUGGAAACUAGGAGCACCGUUUCGCUGCCAGCGAAGAAAUGAACAAAGAAAAUCUGGGCCAGGCAGGCAUCAAAGGAAAUAGUCUUGCGCUCAACCAGAAGGUCUGUAAUCAUUCUAAGGGUA [A36G U49C A92G A118G U132C],0.91
19,GUUAACGGUCAUAGGCCAUGGAAACUAGGAGCACCUUUUCGCUGCCGGUGAAGAAAUGAACAAAGAAAAUCUGGGCCAGGCAGGCAUCGAAAGAAAUAGUCUUGCGCUCAACCAGAAAGUCUGUAAUCAUUUUAAGGGUA [A36U A47G A89G],1.51
20,GUUAACGGUCAUAGGCCAUGGAAACUAGGAGCACCGUUCCGCUGCCAGUGAAGAAGUGAACAAAGAAAAUCUGGGCCGGGCAGGCAUCAAAAGAAAUAGUCUUGCGCUCAACCAGAAAGUCUGUAAUCAUCUUAAGGGUA [A36G U39C A56G A78G U131C],0.37
21,GUUAACGGUCAUAGGCCAUGGAAACUAGGAGCACCGCUUCGCUGCCAGUGAAGAAAUGAACAAAGAAAAUCUGGGCCAGGCAGGCAUCAAAAGAAAUAGUCUUGCGCUCAACCAGAAAGCCUGUAAUCAUUUUAAGGCUA [A36G U37C U120C G138C],0.32

row,Variant,self-cleavage
1,GUUAACGGUCAUAGGCCAUGGAAACUAGGAGCACCGUUUCGCUGCCAGUGAAGAAAUGAACAAAGAAAAUCAGGGCCAGGCAGGCAUCAAAGGAAAUAGCCUUGCGCUCAACCAGAAAGUCUGCAAUCAUUAUAAGGGUA [A36G U72A A92G U100C U124C U132A],0.03
2,GUUAACGGUCAUAGGCCAUGGAAACUAGGAGCACCGUUUCGCUGCCAGUGAAGAAAUGAACAAAGAAAAUCCGGGCCAGGCAGGCAUCAAAAGAAAUAGUCUUGCGCUCAACCAGAAGGUCUGUAAUCAUUUUAAGGGUA [A36G U72C A118G],0.12
3,GUUAACGGUCAUAGGCCAUGGAAACUAGGAGCACCGCUUCGCAGCCAGCGAAGAAAUGAACAAAGAAGAUCUGGGCCAGGCAGGCAUCAAAAGAAAUAGUCUCGCGCUCAACCAGAAAGUCUGUAAUCAUUUUAAGGGUA [A36G U37C U43A U49C A68G U103C],0.8
4,GUUAACGGUCAUAGGCCAUGGAAACUAGGAGCACCGUUUCGCUGCCAGUGAAGAAAUGAACAAAGAAAAUCAGGGCCAGGCAGGCAUCAAUAGAAAUAGUCUUGCGCUCAACCAGAAAGUCUGUAAUCAUUUUAAGGGUA [A36G U72A A91U],0.38
5,GUUAACGGUCAUAGGCCAUGGAAACUAGGAGCACCUUUUCGCUGCCAGUGGAGAAAUGAACAAAGAAAAUCUGGGCCAGGCAGGCAUCAACAGAAAUAGUCUUGCGCUCAACCAGAAAGUCUGUAAUCAUUUUAAGGGUA [A36U A51G A91C],1.96
6,GUUAACGGUCAUAGGCCAUGGAAACUAGGAGCACCGUUCCGCUGCCAGUGAAGAAACGAACAAAGAAAAUCUGGGCCAGGCAGGCAUCAGAAGAAAUAGUCUUGCGCUCAACCAGAAAGUCUGUAAUCACUUUAAGGGUA [A36G U39C U57C A90G U130C],0.41
7,GUUAACGGUCAUAGGCCAUGGAAACUAGGAGCACCGUCUCGCUGCCAGUGAAGAAAUGAACGAAGAAGAUCUGGGCCAGGCAGGCAUCAAAAGAAAUAGUCUUGCGCUCAACCAGAAAGUCUGUAAUCAUUUUAAGGGUA [A36G U38C A62G A68G],1.75
8,GUUAACGGUCAUAGGCCAUGGAAACUAGGAGCACCGUUUCGCUGCCAGUGAAGAAACGAACAAAGAAGAUCUGGGCCAGGCAGGCAUCAAAAGAAAUAGUCUUGCGCUCAACCAGAAAGUCCGUAAUCAUUUUAAGGGUA [A36G U57C A68G U122C],0.31
9,GUUAACGGUCAUAGGCCAUGGAAACUAGGAGCACCUUUUCGCUGCCUGUGAAGAAAUGAACAAAGAAAAUCUGGGCCAGGCAGGCACCAAAAGAAAUAGUCUUGCGCUCAACCAGAAAGUCUGCAAUCAUUUUAAGGGUA [A36U A47U U87C U124C],0.51
10,GUUAACGGUCAUAGGCCAUGGAAACUAGGAGCACCUUUUCGCUGCCUGUGAAGAAAUGAACAAAGGAAAUCUGGGCCAGGCAGGCAUCAAAAGAAAUAGUCUUGCGCUCAACCAGAAAGUCUGUAAUCUUUUUAAGGGUA [A36U A47U A66G A129U],0.12
11,GUUAACGGUCAUAGGCCAUGGAAACUAGGAGCACCGUUUCGCUGCCAGUGAAGAAAUGAACAAAGAAAAUCAGGGCCAGGCAGGCAUCAAAAGGAAUAGUCUUGCGCUCAACCAGUAAGUCUGUAAUCAUUUUAAGGGUA [A36G U72A A94G A116U],0.1
12,GUUAACGGUCAUAGGCCAUGGAAACUAGGAGCACCGUUUCGCUGCCAGUUAAGAAAUGAACAAAGAAAAUCUGGGCCAGGCAGGCAUCAAAAGAAAUAGUCUUGCGCUCAACCAGAAAGUCUGUAAUCAUUUUAAGGGUU [A36G G50U A140U],1.23
13,GUUAACGGUCAUAGGCCAUGGAAACUAGGAGCACCGCUUCGCUGCCAGUGAAGAAAUGAACAAAGAAAAUCUGGGCCAGGCAGGCAUCAAAAGAAAUAGUCUUGCGCUCAACCAGAAAGUCUGUAAUCAUUUUAAGGGUG [A36G U37C A140G],1.62
14,GUUAACGGUCAUAGGCCAUGGAAACUAGGAGCACCGUUUCGCUGCCAGGGAAGACAUGAACAAAGAAAAUCUGGGCCAGGCAGGCAUCAAAAGAAAUAGUCUUGCGCUCAACCAGAAAGUCUGUAAUCAUUUUAAGGGUA [A36G U49G A55C],1.02
15,GUUAACGGUCAUAGGCCAUGGAAACUAGGAGCACCGUUUCGCAGCCAGUGAAGAAAUGAACAAAGAGAAUCUGGGCCAGGCAGGCAUCAAAAGAAAUAGUCUUGCGCUCAACCAGAAAGUCUGUAAUCAUCUUAAGGGUA [A36G U43A A67G U131C],2.44
16,GUUAACGGUCAUAGGCCAUGGAAACUAGGAGCACCGUUUCGCUGCCAGAGAAGAAAUGAACAAAGAAAAUCUGGGCCAGGCAGGCAUAAAAAGAAAUAGUCUUGCGCUCAACCAGAAAGUCUGUAACCAUUUUAAGGGUA [A36G U49A C88A U127C],1.66
17,GUUAACGGUCAUAGGCCAUGGAAACUAGGAGCACCGUCUCGCUGCCAGUGAAGGAAUGAACAAAGAAAAUCUGGGCCAGGCAGGCAUCAAAAGAAAUAGUCUUGCGCUCAACCAGAAAGUCUGUAAUCAUUUUAAGGGUA [A36G U38C A54G],2.84
18,GUUAACGGUCAUAGGCCAUGGAAACUAGGAGCACCUUUUCGCUGCCAGUGAAGAAGUGAACAAAGAAAAUCUGGGCCAGGCAGGCAUCAAAAGAAAUAGUCUUGCGCUCAACCAGAGAGUCUGUAAUCAUUUAAAGGGUA [A36U A56G A117G U133A],1.24
19,GUUAACGGUCAUAGGCCAUGGAAACUAGGAGCACCGUUUCGCUGCCAGCGAAGAAAUGAACAAAGAAAAUCUGGGCCAGGCAGGCAUCAAAAGAAACAGUCUUGCGCUCAACCAGAAAGUCUGUAAUCAUUUUAAGGGUA [A36G U49C U97C],1.26
20,GUUAACGGUCAUAGGCCAUGGAAACUAGGAGCACCGUUUCGCCGCCAGUGAAGAGAUGAACAAAGAAAAUCUGGGCCAGGCAGGCAUCAAAAGAAAUAGUCUUGCGCUCAACCAGAAAGUCUGUAAUCAUUUUAGGGGUA [A36G U43C A55G A135G],2.1
